# According to PubChem BioAssay AID445 (National Center for Advancing Translational Sciences (NCATS), 2006):
# Out of some 110,000 compounds screened, about 40 (0.04%) were called active. Inconclusive means that the source gave no clear call. Such entries were picked first, then a sample of the others. The call rests on the fitted dose curve; in most records, active means well fitted curve in the direction sought with a large enough effect in the signal ratio (not every such curve was filed as active); inconclusive means small, poorly fitted or top-dose-only effect, or a change in a side signal; inactive means flat fitted curve, though single readings scatter; the % refers to the signal ratio. Potencies of inconclusive entries are doubtful fits and often do not repeat.
# Assay: IkB Signaling;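 on IkBa stabilization activation: 0% = basal untreated cells and 100% = reference inhibitor full response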
# Details: ABC-DLBCL IkBa-CBG/CBR dual luciferase ratio (green luciferase fused to IkBa over red control in OCI-Ly3 lymphoma cells), 4 h; IkBa stabilization activation: at 57.1 µM (top of the series), scaled: untreated 0%, proteasome inhibitor 100% unless noted
# Summary of the method: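 Luminescence ratio of IκBα-fused green versus native red beetle luciferase in OCI-Ly3 cells, 4 h post-doxycycline with compound; red signal alone, scaled from basal (0%) to zero light (-100%), flagged nonspecific or cytotoxic effects.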
# Potency means the concentration at half of the fitted maximal effect.
SMILES,IkBa stabilization activation,Potency
Cc1sc2nc3ccc(N4CCCCC4)nn3c(=O)c2c1C,inconclusive: 2.93% [signal inhibitor],–
CCCCNc1nc2c(c(=O)n(Cc3ccc(Cl)cc3)c(=O)n2C)n1C,inconclusive: 0.181% [signal inhibitor],–
O=C(Nc1cc(=O)c2ccccc2o1)N1CCCCC1,inconclusive: 3.93% [signal inhibitor],–
COc1cccc(CSc2nc3cc(C(=O)NC4CCCC4)ccc3c(=O)n2Cc2ccccc2)c1,inconclusive: 0.819% [signal inhibitor],–
COc1ccc(-n2cc(C(=O)NCc3ccccc3)c3ccccc3c2=O)cc1,inconclusive: 0.217% [signal inhibitor],–
CC1Cc2ccccc2N1S(=O)(=O)c1cccc(C(=O)c2nccn2C)c1 (stereo not drawn),inconclusive: 2.67% [signal inhibitor],–
O=C(c1ccc2c(c1)N(Cc1ccc(Cl)cc1)C(=O)c1ccccc1S2=O)N1CCOCC1 (stereo not drawn),inconclusive: 1.14% [signal inhibitor],–
Cc1ccc(CNC(=O)CCS(=O)(=O)c2cc(Br)cc3c2N(C(=O)C2CC2)CC3)o1,–,"inconclusive: 31.6 µM [rising, single point]"
Cc1cc(C)c2c(CC(=O)N3CCN(c4cccc(Cl)c4)CC3)coc2c1,inconclusive: 0.25% [signal inhibitor],–
c1cncc(-c2nc(-c3ccc4c(c3)OCO4)cs2)c1,inactive,–
COc1cccc(N2CCN(C(=O)c3ccc(Cn4c(=O)[nH]c5cc(OC)c(OC)cc5c4=O)cc3)CC2)c1,inconclusive: 7.34% [signal inhibitor],–
O=C(c1ccc(N2CN(C(=O)c3ccco3)c3nc4ccccc4nc32)cc1)N1CCOCC1,inconclusive: 0.854% [signal inhibitor],–
COc1ccc(C(CNC(=O)c2oc3ccc(Cl)cc3c2C)N2CCCCC2)cc1 (stereo not drawn),inconclusive: 0.234% [signal inhibitor],–
COc1ccc(NC(=O)Cn2c(SCc3cc(C)ccc3C)nc3ccncc32)c(OC)c1OC,inconclusive: 6.4% [signal inhibitor],–
COc1ccccc1N1CCN(CCCCN2C(=O)c3ccccc3C2=O)CC1,–,"inconclusive: 20 µM [signal inhibitor, partial curve]"
COc1ccc2c(CNCc3cccs3)c(C(=O)O)n(Cc3ccccc3)c2c1,inconclusive: -1.23% [signal inhibitor],–
Cc1c(CCNC(=O)c2ccc(Br)o2)sc2nc(-c3ccc(F)cc3)nn12,inconclusive: -11.3% [signal inhibitor],–
O=C(Cn1c(=O)c2cccn2c2ccccc21)NCCc1ccccc1,inconclusive: 2.16% [signal inhibitor],–
